# Results: the supplement of paper PMC10037445
# In all, about 2,900 compounds were measured (“NF-kB SEAP reporter activity, fold change vs agonist alone”: median about 0.99, highest 2% from about 2.6 on). Some of the results follow.
# Experiments:
# RAW-Dual [1] = test: NF-kB SEAP reporter activity, fold change vs agonist alone; higher = enhanced NF-kB activity; conditions: library stock concentration (final ~1000-fold dilution): 10 mM
# Summary of the method: (§1)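 Supernatant from RAW-Dual macrophages was read after 20 hours for IRF by QuantiLuc luminescence and for NF-κB by QuantiBlue absorbance at 620 nm. The cells (50,000 cells/well in DMEM, 384-well plates, 37 °C, 5% CO2) had received 50 nL of library stock by pin tool and, 1 h later, a PRR agonist. Reporter activity is expressed relative to agonist-alone wells as fold change, and wells were flagged cytotoxic if IncuCyte confluency was under 70% of agonist controls in both mask sets.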
# RAW-Dual [2] = test: NF-kB SEAP reporter activity, fold change vs agonist alone; cytotoxicity flag (confluency mask): not cytotoxic; higher = enhanced NF-kB activity
# Summary of the method: as §1
# RAW-Dual [3] = test: NF-kB SEAP reporter activity, fold change vs agonist alone; cytotoxicity flag (confluency mask): cytotoxic (confluency <70% of control); higher = enhanced NF-kB activity
# Summary of the method: as §1
# [4] = cytotoxicity flag (confluency mask): not cytotoxic, agonist: Imiquimod (TLR7) […]
# [5] = cytotoxicity flag (confluency mask): not cytotoxic, agonist: MPLA (TLR4) […]
# [6] = agonist: ODN 1826 (TLR9) 0.5 ug/mL
# [7] = agonist: Pam2CSK4 (TLR2/6) 0.1 ug/mL
# [8] = agonist: Pam3CSK4 (TLR2/1) 0.1 ug/mL
# [9] = cytotoxicity flag (confluency mask): cytotoxic (confluency <70% of control), agonist: Imiquimod (TLR7) […]
# [10] = cytotoxicity flag (confluency mask): cytotoxic (confluency <70% of control), agonist: MPLA (TLR4) […]
structure (smiles),measurement,setting,value
Cc1c(F)cc(C(=O)NC2CC2)cc1-c1ccc(C(=O)NCC(C)(C)C)cn1,NF-kB SEAP reporter activity,RAW-Dual [1]; [4],0.854
same,NF-kB SEAP reporter activity,RAW-Dual [1]; [5],1.7
Cc1c(F)cc(C(=O)NC2CC2)cc1-c1ccc(C(=O)NCC(C)(C)C)cn1 (library stock concentration (final ~1000-fold dilution): 10 mM),NF-kB SEAP reporter activity,RAW-Dual [2]; agonist: LPS (TLR4) 0.1 ug/mL,1.44
same,NF-kB SEAP reporter activity,RAW-Dual [2]; [6],0.852
same,NF-kB SEAP reporter activity,RAW-Dual [2]; [7],0.455
same,NF-kB SEAP reporter activity,RAW-Dual [2]; [8],0.538
CNC(=O)C(Cc1c[nH]c2ccccc12)NC(=O)C(CC(=O)NO)CC(C)C (stereo unspecified) (library stock concentration (final ~1000-fold dilution): 10 mM),NF-kB SEAP reporter activity,RAW-Dual [2]; agonist: LPS (TLR4) 0.1 ug/mL,0.932
same,NF-kB SEAP reporter activity,RAW-Dual [2]; [6],0.999
same,NF-kB SEAP reporter activity,RAW-Dual [2]; [7],1.03
same,NF-kB SEAP reporter activity,RAW-Dual [2]; [8],1.01
CNC(=O)C(Cc1c[nH]c2ccccc12)NC(=O)C(CC(=O)NO)CC(C)C (stereo unspecified),NF-kB SEAP reporter activity,RAW-Dual [1]; [4],1.04
same,NF-kB SEAP reporter activity,RAW-Dual [1]; [5],1.23
COc1ccc(S(=O)(=O)N(C(C)=O)c2ccccc2/C=C/c2cc[n+]([O-])cc2)cc1 (library stock concentration (final ~1000-fold dilution): 10 mM),NF-kB SEAP reporter activity,RAW-Dual [2]; agonist: LPS (TLR4) 0.1 ug/mL,1.85
same,NF-kB SEAP reporter activity,RAW-Dual [2]; [6],2.59
same,NF-kB SEAP reporter activity,RAW-Dual [2]; [7],1.94
same,NF-kB SEAP reporter activity,RAW-Dual [2]; [8],1.43
COc1ccc(S(=O)(=O)N(C(C)=O)c2ccccc2/C=C/c2cc[n+]([O-])cc2)cc1,NF-kB SEAP reporter activity,RAW-Dual [1]; [4],2.17
same,NF-kB SEAP reporter activity,RAW-Dual [1]; [5],1.61
O=C1Nc2nc(-c3c(O)cccc3OCC3CC3)cc([C@@H]3CCCNC3)c2CO1 (library stock concentration (final ~1000-fold dilution): 10 mM),NF-kB SEAP reporter activity,RAW-Dual [3]; agonist: LPS (TLR4) 0.1 ug/mL,0.3
same,NF-kB SEAP reporter activity,RAW-Dual [3]; [6],0.204
same,NF-kB SEAP reporter activity,RAW-Dual [3]; [7],0.0719
same,NF-kB SEAP reporter activity,RAW-Dual [3]; [8],0.16
O=C1Nc2nc(-c3c(O)cccc3OCC3CC3)cc([C@@H]3CCCNC3)c2CO1,NF-kB SEAP reporter activity,RAW-Dual [1]; [9],0.186
same,NF-kB SEAP reporter activity,RAW-Dual [1]; [10],0.267
NC1C(O)OC(CO)C(O)C1O (stereo unspecified),NF-kB SEAP reporter activity,RAW-Dual [1]; [4],1.01
same,NF-kB SEAP reporter activity,RAW-Dual [1]; [5],1.08
NC1C(O)OC(CO)C(O)C1O (stereo unspecified) (library stock concentration (final ~1000-fold dilution): 10 mM),NF-kB SEAP reporter activity,RAW-Dual [2]; agonist: LPS (TLR4) 0.1 ug/mL,0.781
same,NF-kB SEAP reporter activity,RAW-Dual [2]; [6],0.917
same,NF-kB SEAP reporter activity,RAW-Dual [2]; [7],0.81
same,NF-kB SEAP reporter activity,RAW-Dual [2]; [8],0.843
O=C(NC(CO)C(O)c1ccc([N+](=O)[O-])cc1)C(Cl)Cl (stereo unspecified),NF-kB SEAP reporter activity,RAW-Dual [1]; [4],0.924
same,NF-kB SEAP reporter activity,RAW-Dual [1]; [5],1.06
O=C(NC(CO)C(O)c1ccc([N+](=O)[O-])cc1)C(Cl)Cl (stereo unspecified) (library stock concentration (final ~1000-fold dilution): 10 mM),NF-kB SEAP reporter activity,RAW-Dual [2]; agonist: LPS (TLR4) 0.1 ug/mL,1.26
same,NF-kB SEAP reporter activity,RAW-Dual [2]; [6],1.08
same,NF-kB SEAP reporter activity,RAW-Dual [2]; [7],1.07
same,NF-kB SEAP reporter activity,RAW-Dual [2]; [8],1.13
Nc1nc(NCCc2ccc(O)cc2)nc2nc(-c3ccco3)nn12 (library stock concentration (final ~1000-fold dilution): 10 mM),NF-kB SEAP reporter activity,RAW-Dual [2]; agonist: LPS (TLR4) 0.1 ug/mL,1.81
same,NF-kB SEAP reporter activity,RAW-Dual [2]; [6],1.56
same,NF-kB SEAP reporter activity,RAW-Dual [2]; [7],1.16
same,NF-kB SEAP reporter activity,RAW-Dual [2]; [8],1.41
Nc1nc(NCCc2ccc(O)cc2)nc2nc(-c3ccco3)nn12,NF-kB SEAP reporter activity,RAW-Dual [1]; [4],1.7
same,NF-kB SEAP reporter activity,RAW-Dual [1]; [5],1.36
O=C(/C=C/c1ccc(CN(CCO)CCc2c[nH]c3ccccc23)cc1)NO,NF-kB SEAP reporter activity,RAW-Dual [1]; [9],2.64
same,NF-kB SEAP reporter activity,RAW-Dual [1]; [10],2.71
O=C(/C=C/c1ccc(CN(CCO)CCc2c[nH]c3ccccc23)cc1)NO (library stock concentration (final ~1000-fold dilution): 10 mM),NF-kB SEAP reporter activity,RAW-Dual [3]; agonist: LPS (TLR4) 0.1 ug/mL,5.57
Cc1nc(-c2cn3c(n2)-c2ccc(-c4cnn(C(C)(C)C(N)=O)c4)cc2OCC3)n(C(C)C)n1,NF-kB SEAP reporter activity,RAW-Dual [1]; [4],0.619
same,NF-kB SEAP reporter activity,RAW-Dual [1]; [5],1.84
Cc1nc(-c2cn3c(n2)-c2ccc(-c4cnn(C(C)(C)C(N)=O)c4)cc2OCC3)n(C(C)C)n1 (library stock concentration (final ~1000-fold dilution): 10 mM),NF-kB SEAP reporter activity,RAW-Dual [2]; agonist: LPS (TLR4) 0.1 ug/mL,2.74
same,NF-kB SEAP reporter activity,RAW-Dual [2]; [6],1.31
same,NF-kB SEAP reporter activity,RAW-Dual [2]; [7],0.996
same,NF-kB SEAP reporter activity,RAW-Dual [2]; [8],1.15
O=c1cc[nH]c(=S)[nH]1,NF-kB SEAP reporter activity,RAW-Dual [1]; [4],1.07
same,NF-kB SEAP reporter activity,RAW-Dual [1]; [5],0.995
O=c1cc[nH]c(=S)[nH]1 (library stock concentration (final ~1000-fold dilution): 10 mM),NF-kB SEAP reporter activity,RAW-Dual [2]; agonist: LPS (TLR4) 0.1 ug/mL,1.28
same,NF-kB SEAP reporter activity,RAW-Dual [2]; [6],1.03
same,NF-kB SEAP reporter activity,RAW-Dual [2]; [7],1.29
same,NF-kB SEAP reporter activity,RAW-Dual [2]; [8],1.11
Cc1nnc(SCC2=C(C(=O)O)N3C(=O)C(NC(=O)Cn4cnnn4)C3SC2)s1 (stereo unspecified) (library stock concentration (final ~1000-fold dilution): 10 mM),NF-kB SEAP reporter activity,RAW-Dual [2]; agonist: LPS (TLR4) 0.1 ug/mL,1.02
same,NF-kB SEAP reporter activity,RAW-Dual [2]; [6],0.981
same,NF-kB SEAP reporter activity,RAW-Dual [2]; [7],1.11
same,NF-kB SEAP reporter activity,RAW-Dual [2]; [8],1.08
Cc1nnc(SCC2=C(C(=O)O)N3C(=O)C(NC(=O)Cn4cnnn4)C3SC2)s1 (stereo unspecified),NF-kB SEAP reporter activity,RAW-Dual [1]; [4],0.943
same,NF-kB SEAP reporter activity,RAW-Dual [1]; [5],1.04
Cc1cccc(C#Cc2ccccc2)n1,NF-kB SEAP reporter activity,RAW-Dual [1]; [4],1.25
same,NF-kB SEAP reporter activity,RAW-Dual [1]; [5],1.29
Cc1cccc(C#Cc2ccccc2)n1 (library stock concentration (final ~1000-fold dilution): 10 mM),NF-kB SEAP reporter activity,RAW-Dual [2]; agonist: LPS (TLR4) 0.1 ug/mL,1.21
same,NF-kB SEAP reporter activity,RAW-Dual [2]; [6],1.14
same,NF-kB SEAP reporter activity,RAW-Dual [2]; [7],0.931
same,NF-kB SEAP reporter activity,RAW-Dual [2]; [8],1.24
Cc1cc(Nc2ncnc3ccc(-c4ccc(CNCCS(C)(=O)=O)o4)cc23)ccc1Oc1ccn2ncnc2c1,NF-kB SEAP reporter activity,RAW-Dual [1]; [4],1.08
same,NF-kB SEAP reporter activity,RAW-Dual [1]; [5],1.53
Cc1cc(Nc2ncnc3ccc(-c4ccc(CNCCS(C)(=O)=O)o4)cc23)ccc1Oc1ccn2ncnc2c1 (library stock concentration (final ~1000-fold dilution): 10 mM),NF-kB SEAP reporter activity,RAW-Dual [2]; agonist: LPS (TLR4) 0.1 ug/mL,2.19
same,NF-kB SEAP reporter activity,RAW-Dual [2]; [6],0.229
same,NF-kB SEAP reporter activity,RAW-Dual [2]; [7],0.997
same,NF-kB SEAP reporter activity,RAW-Dual [2]; [8],0.811
COc1cc(O)c(CC=C(C)C)c(O)c1C(=O)/C=C/c1ccc(O)cc1,NF-kB SEAP reporter activity,RAW-Dual [1]; [9],1.3
same,NF-kB SEAP reporter activity,RAW-Dual [1]; [10],1.04
COc1cc(O)c(CC=C(C)C)c(O)c1C(=O)/C=C/c1ccc(O)cc1 (library stock concentration (final ~1000-fold dilution): 10 mM),NF-kB SEAP reporter activity,RAW-Dual [3]; agonist: LPS (TLR4) 0.1 ug/mL,0.941
same,NF-kB SEAP reporter activity,RAW-Dual [3]; [6],0.792
same,NF-kB SEAP reporter activity,RAW-Dual [3]; [7],0.843
same,NF-kB SEAP reporter activity,RAW-Dual [3]; [8],1.32
